Substrate: [H][C@]12C[C@]3(O)[C@@H](OC)[C@H](O)[C@](OC(C)=O)(C4C5N(C)C[C@]6(COC)CC[C@H](OC)[C@@]51[C@]6([H])[C@H]4OC)[C@@]2([H])[C@H]3OC(=O)c1ccccc1
Assay: Kinetic analysis in recombinant human CYP3A4
Format: in vitro ADME
Conditions: 37.0 °C

B1: recombinant human CYP3A4 (Homo sapiens) (protein)
chain: ALIPDLAMETWLLLAVSLVLLYLYGTHSHGLFKKLGIPGPTPLPFLGNILSYHKGFCMFDMECHKKYGKVWGFYDGQQPVLAITDPDMIKTVLVKECYSVFTNRRPFGPVGFMKSAISIAEDEEWKRLRSLLSPTFTSGKLKEMVPIIAQYGDVLVRNLRREAETGKPVTLKDVFGAYSMDVITSTSFGVNIDSLNNPQDPFVENTKKLLRFDFLDPFFLSITVFPFLIPILEVLNICVFPREVTNFLRKSVKRMKESRLEDTQKHRVDFLQLMIDSQNSKETESHKALSDLELVAQSIIFIFAGYETTSSVLSFIMYELATHPDVQQKLQEEIDAVLPNKAPPTYDTVLQMEYLDMVVNETLRLFPIAMRLERVCKKDVEINGMFIPKGVVVMIPSYALHRDPKYWTEPEKFLPERFSKKNKDNIDPYIYTPFGSGPRNCIGMRFALMNMKLALIRVLQNFSFKPCKETQIPLKLSLGGLLQPEKPVVLKVESRDGTVSGA
notes: purchased Corning 456202; host or cells: baculovirus infected insect cells (BTI-TN-5B1-4)
Km: 17.05 ± 9.70 µM | Vmax: 0.16 ± 0.04 nmol·mg protein^−1·min^−1

From PMC6463675, “Panax ginseng Inhibits Metabolism of Diester Alkaloids by Downregulating CYP3A4 Enzyme Activity via the Pregnane X Receptor” (Evidence-based Complementary and Alternative Medicine : eCAM, 2019)
